Screen size: about 310,000 compounds; about 2,200 (0.71%) showed an effect of 50% or more. The effect is printed as a negative number. This is one part of the list.
These compounds were tested against human ether-à-go-go-related gene (hERG) potassium channel (human, UniProt Q12809) (assay: primary screen, population patch clamp on CHO cells stably expressing hERG).
human ether-à-go-go-related gene (hERG) potassium channel, sequence (Q12809 whole entry, looked up): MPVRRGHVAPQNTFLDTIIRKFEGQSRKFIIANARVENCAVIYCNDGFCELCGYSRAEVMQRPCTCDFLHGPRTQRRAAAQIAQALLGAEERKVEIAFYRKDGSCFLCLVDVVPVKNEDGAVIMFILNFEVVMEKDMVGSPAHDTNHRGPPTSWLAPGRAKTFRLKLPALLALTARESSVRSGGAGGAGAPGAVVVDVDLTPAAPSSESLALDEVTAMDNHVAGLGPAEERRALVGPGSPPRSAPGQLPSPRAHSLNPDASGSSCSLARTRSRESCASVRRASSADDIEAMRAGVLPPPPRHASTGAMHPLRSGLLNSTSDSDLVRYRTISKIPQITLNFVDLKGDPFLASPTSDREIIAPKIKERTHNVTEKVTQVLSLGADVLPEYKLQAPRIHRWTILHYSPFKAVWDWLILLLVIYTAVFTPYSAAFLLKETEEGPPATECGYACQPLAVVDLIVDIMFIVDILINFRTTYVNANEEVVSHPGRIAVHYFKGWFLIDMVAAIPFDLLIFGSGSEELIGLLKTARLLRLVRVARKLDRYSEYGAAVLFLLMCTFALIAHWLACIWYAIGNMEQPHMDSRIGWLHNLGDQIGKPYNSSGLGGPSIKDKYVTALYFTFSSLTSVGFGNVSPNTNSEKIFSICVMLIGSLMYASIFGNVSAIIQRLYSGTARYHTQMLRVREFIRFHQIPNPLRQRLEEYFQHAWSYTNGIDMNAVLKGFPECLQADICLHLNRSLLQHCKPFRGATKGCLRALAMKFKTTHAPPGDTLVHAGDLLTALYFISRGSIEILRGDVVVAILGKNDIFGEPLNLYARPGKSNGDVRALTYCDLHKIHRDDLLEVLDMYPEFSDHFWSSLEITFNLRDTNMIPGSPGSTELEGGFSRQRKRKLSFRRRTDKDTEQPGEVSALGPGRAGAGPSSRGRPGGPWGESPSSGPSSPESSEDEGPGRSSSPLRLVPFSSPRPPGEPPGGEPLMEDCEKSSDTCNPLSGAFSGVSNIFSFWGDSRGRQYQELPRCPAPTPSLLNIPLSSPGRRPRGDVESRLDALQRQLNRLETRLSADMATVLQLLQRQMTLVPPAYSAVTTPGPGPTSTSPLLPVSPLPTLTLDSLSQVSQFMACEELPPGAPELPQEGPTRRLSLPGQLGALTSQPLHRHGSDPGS

| Structure (SMILES) | hERG current change (%, negative = inhibition) at 1uM |
| --- | --- |
| Cc1ncc(CO)c2c1Oc1nc(-c3ccccc3)nc(SCC(=O)N3CCOCC3)c1C2 | 11.4% |
| COc1ccc(CNC(=O)[C@H](NC(=O)C2CCN(C(=O)[C@@H](N)CCSC)CC2)C(C)C)cc1 | 4.4% |
| COCCNC(=O)CSc1nc2nn(-c3ccccc3)c(=O)c-2c2n1CCCCC2 | 17% |
| CC(=O)C(C(c1ccccc1)c1c[nH]c2ccccc12)[N+](=O)[O-] (stereo not shown) | 11.3% |
| O=C(c1ccc(-n2cncn2)c([N+](=O)[O-])c1)N1CCN(S(=O)(=O)c2ccc(F)c(F)c2)CC1 | -28.8% |
| CCCCNC(=O)C1CC(=O)N(CCc2ccccc2)C1 (stereo not shown) | 11.2% |
| Cc1ccc([N+](=O)[O-])cc1N1C(=O)CS/C1=N\NC(=O)c1cccnc1 | 9.91% |
| COc1ccc(N=C2SC(CC(=O)Nc3ccccc3)C(=O)N2CC2CCCO2)cc1 (stereo not shown) | 8.68% |
| O=C(Nc1nnc(C2CC2)s1)C1CCCCN1S(=O)(=O)c1ccccc1 (stereo not shown) | 3.65% |
| CC(Sc1nncn1C)C(=O)Nc1nnc(C(C)C)s1 (stereo not shown) | 6.33% |
| COc1cnc(-c2ccccn2)nc1Sc1ccc(C)cc1 | 18.2% |
| O=C(Nc1ccc(N2CCCC2)c(Cl)c1)c1ccc([N+](=O)[O-])cc1 | 20.1% |
| Cc1cc(C(=O)Nc2ccc(F)cc2)c2ccccc2n1 | 6.95% |
| CCN(CC)CCNC(=O)c1ccc(NC(=O)C2CCN(S(=O)(=O)c3ccc4c(c3)OCCO4)CC2)cc1 | 24.6% |
| CCOC(=O)c1cnc2c(OC)cccc2c1N1CC(C)CC(C)C1 (stereo not shown) | 7.23% |
| [O-][n+]1ccc(C2CC2)cc1 | 8.66% |
| COc1ccc(Oc2ccc(S(=O)(=O)N3CCCCC3)cc2S(=O)(=O)N2CCCCC2)cc1 | 9.35% |
| NC(=O)c1ccccc1NS(=O)(=O)Cc1ccccc1 | 14.2% |
| Cc1cccc(OCC(=O)O/N=C(\N)c2ccc(Br)cc2)c1 | 9.06% |
| CCN(CC)c1ccc(/C=N/N2CCOCC2)c(O)c1 | 11.5% |
| CCn1c(=O)c(C(=O)NCc2ccc(OC)c(OC)c2)c(O)c2ccccc21 | 13.9% |
| O=C1C2C3C=CC(C3)C2C(=O)N1CNc1ccc(O)cc1 (stereo not shown) | 0.288% |

| Structure (SMILES) | hERG current change (%, negative = inhibition) at 1uM |
| --- | --- |
| Cc1noc(C)c1-c1nc(CSc2ccccc2)no1 | 7.31% |
| CN(C)S(=O)(=O)c1ccc(NC(=O)c2ccc3ncsc3c2)cc1 | 2.55% |
| O=C(CN1CC=C(c2ccccc2)CC1)NC(=O)NCc1ccco1 | 13.9% |
| CC(Sc1nnc(-c2ccncc2)n1C)C(=O)NCC1CCCO1 (stereo not shown) | 9.37% |
| COc1ccc(C2c3[nH]c4ccccc4c3C[C@H]3C(=O)N(CCCO)CC(=O)N23)c(OC)c1 (stereo partly shown) | 17.3% |
| CCOC(=O)c1cc(CC)sc1NC(=O)COC | 7.4% |
| CCOC(=O)C1CCCN(Cc2cc(Br)ccc2OC)C1 (stereo not shown) | -0.882% |
| CC1CCN(S(=O)(=O)c2cccc(C(=O)NC3CCCC3)c2)CC1 | -20.5% |
| COC(=O)C1=C(C(=O)OC)[C@@H]2N(C)c3ccccc3[C@@]23C[C@@H](CO)N(C(=O)c2cccs2)C3=N1 | 13.7% |
| COc1ccc(S(=O)(=O)N2CCN(C(=O)NCc3ccccc3)CC2)cc1 | -2.47% |
| COc1ccccc1CNC(=O)CCCn1nc(C)n2ccnc2c1=O | 13.1% |
| O=C(/C=C/c1c(Cl)cccc1Cl)NCCc1ccccc1 | 9.36% |
| CC1CCC[C@H](O)CCCCCc2cc(O)cc(O)c2C(=O)O1 (stereo partly shown) | 14.4% |
| COc1ccc([N+](=O)[O-])cc1NC(=O)CSCc1ccccc1 | 13.5% |
| O=C(O)c1ccccc1-c1ccccc1C(=O)Nc1cccc(-c2nc3ccccc3o2)c1 | 3.28% |
| Cc1ccc2c(C(=O)CSc3ccccc3)c(C)[nH]c2c1 | 1.86% |
| O=C(N/N=C/C=C/c1ccccc1)c1ccccc1Br | 13.9% |
| CCOc1ccc(NC(=O)CCc2nnc3ccc(N4CCC(C)CC4)nn23)cc1 | 6.13% |
| Cc1ccc(CC(=O)Nc2nc3ccccc3[nH]2)cc1C | 6.69% |
| O=S(=O)(c1ccc(Cl)cc1)N1CCN=C1SCc1ccc(Cl)c(Cl)c1 | 7.69% |
| CC(NC(=O)c1ccc(NC(=O)CC2SC(N3CCCC3)=NC2=O)cc1)c1ccc(F)cc1 (stereo not shown) | 16.3% |
| COc1ccc(Cl)cc1C(=O)NCCS(=O)(=O)N1CCN(c2ccccc2F)CC1 | 5.03% |

| Structure (SMILES) | hERG current change (%, negative = inhibition) at 1uM |
| --- | --- |
| O=C(CSc1nccc(=O)[nH]1)c1ccco1 | -1.38% |
| CCC1CCCCN1CCCNC(=O)c1ccc2c(c1)NC(=O)CN2C (stereo not shown) | 16% |
| COc1ccccc1N(C(=O)CCl)c1cn(C(C)=O)c2ccccc12 | 5.94% |
| COC(=O)C(O)(NC(=O)c1ccncc1)C(F)(F)F (stereo not shown) | 16.1% |
| FC(F)(F)COc1nc(N/N=C/c2cccnc2)nc(N2CCCCC2c2ccccn2)n1 (stereo not shown) | -15.9% |
| Cc1ccccc1C(=O)Oc1cc(N)n(S(C)(=O)=O)n1 | 12.3% |
| O=C(CSc1ccc(Cl)cc1)N/N=C/c1cccnc1 | -2.15% |
| CCOC(=O)N1CCC(N2Cc3cccc(C(=O)Nc4cc(F)ccc4F)c3C2=O)CC1 | -2.63% |
| O=c1c2sc3nc(N4CCOCC4)c4c(c3c2ncn1CCc1ccccc1)CCCC4 | -6.07% |
| Cc1cc(NC(=O)CSc2nnc(C(C)N(C)C)n2-c2ccc(F)cc2)no1 (stereo not shown) | 23.3% |
| COc1ccc(C)cc1NC(=O)c1ccccc1NS(=O)(=O)c1cccc2cccnc12 | 15.3% |
| C/C(Cl)=C/CSc1nc2c(c(=O)[nH]c(=O)n2C)n1C(C)C | 5.07% |
| Cc1nnc(NC(=O)c2c(-c3ccccc3)noc2C)s1 | 10.9% |
| COC(=O)c1c(C)[nH]c(C=Nc2ccc(OC)cc2)c1C | 8.46% |
| COc1ccc(OCC(=O)Nc2ccc(C)c(S(=O)(=O)N(C)C)c2)cc1 | 3.4% |
| COc1ccc(CCNC(=O)COc2cc(O)c3c(c2)OC(C)(C)CC3=O)cc1OC | -3.34% |
| CCN(CC)CCCNC(=O)CNC(=S)N(CCCN1CCOCC1)Cc1cccs1 | 6.65% |
| COc1ccc2[nH]c3c(=O)n(CCCCC(=O)N4CCC(C(N)=O)CC4)c(=S)[nH]c3c2c1 | 6.66% |
| O=C(/C=C/c1ccccc1)Nc1cc(C(=O)O)cc(C(=O)O)c1 | -2.97% |
| CC(=O)Nc1ccc(NC(=O)CSc2nc3[nH]ncc3c(=O)n2-c2ccccc2)cc1 | 30.3% |
| CCOC(=O)c1cc(-c2ccccc2)sc1NC(=S)Nc1cccc(C)n1 | 11.4% |
| CCCCn1c(N)c(N(CC)C(=O)c2cc(C)cc(C)c2)c(=O)[nH]c1=O | 13.7% |

| Structure (SMILES) | hERG current change (%, negative = inhibition) at 1uM |
| --- | --- |
| CCn1c(SCC(=O)Nc2nc3ccccc3s2)nc2c(c1=O)SC(C)C2 (stereo not shown) | 3.43% |
| Cc1ccc(NS(=O)(=O)c2cc(C(=O)NCc3ccncc3)ccc2C)cc1 | 4.21% |
| NC(=O)c1c(NC(=O)C(=O)NCCCN2CCOCC2)sc2c1CCCC2 | 6.61% |
| CCOc1ccc(OCCSc2ccc(S(=O)(=O)N3CCN(C)CC3)cn2)cc1 | 5.27% |
| COc1ccccc1-c1cc(C(=O)N2CCN(c3ccccc3OC)CC2)no1 | 11.2% |
| COc1ccc(S(=O)(=O)N2CCC(C(=O)N[C@@H](C)C(=O)NCc3ccc(F)cc3)CC2)cc1 | 18.8% |
| Cc1ccc(-c2cc(Cc3ccncc3)c(=O)[nH]n2)cc1 | -5.48% |
| Cc1[nH]c2ccccc2c1C(=O)CSC(=S)N(C)C1CCCCC1 | -0.132% |
| O=C(Nc1c[nH]c(=O)[nH]c1=O)c1cccc([N+](=O)[O-])c1 | 11% |
| O/N=C/c1cn(-c2ccc(Cl)cc2)nn1 | 7.48% |
| Cc1ccc(C(=O)Nc2cccc(C(=O)O)c2)cc1 | 16.4% |
| Cc1ccc2c(c1)cc1c(=O)n(CC(=O)N(C)c3ccccc3)nc(C)n12 | 13.7% |
| CCn1c(SC(C)C(=O)O)nc2sc3c(c2c1=O)CCC3 (stereo not shown) | 17% |
| CC(C)CCn1c(SCC(=O)NC2CC2)nc2cc(Cl)ccc2c1=O | 17.4% |
| COC(=O)c1ccc2c(c1)N(C)S(=O)(=O)c1cnc(SCC(=O)C(C)(C)C)nc1-2 | 14.1% |
| COc1ccc(-n2nnnc2SCC(=O)Nc2ccccc2F)cc1 | 13.4% |
| Cc1cc(Cl)c2ccccc2n1.O | 9.1% |
| CN(C(=O)COc1ncnc2sccc12)C1CCCCC1 | 7.82% |
| COc1cccc(NC(=O)c2cccnn2)c1 | 15.4% |
| CC(C)COc1nc2ccccc2nc1C(C#N)C(=O)NC1CCCCC1 (stereo not shown) | 12.9% |
| CCOC(=O)Cc1csc(NC(=O)COc2cc(C)cc(C)c2)n1 | 12.9% |
| CN(Cc1ccc2nsnc2c1)Cc1nc(Cc2cccc(F)c2)no1 | 11.2% |
